This is an account of results in the RNAGym collection of RNA variant scans (doi:10.1073/pnas.2313332121).

The labels stand for the following.
B1: TPR 5TU (parent)
chain: GGAUCUUCUCGAUCUAACAAAAAAGACAAAUCUGCCACAAAGCUUGAGAGCAUCUUCGGAUGCAGAGGCGGCAGCCUUCGGUGGCGCGAUAGCGCCAACGUUCUCAACUAUGACACGCAAAACGCGUGCUCCGUUGAAUGGAGUUUAUCAUG

This sample is rich in variants without activity.

The data set covers variants of B1. Kind of data set: polymerase ribozyme fitness, log enrichment relative to wild type (log ratio); higher = more active; in vitro selection for triplet polymerase activity. The essentials:
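Fitness measures genotype enrichment against wild-type enrichment on a logarithmic scale, with inverse-variance-weighted averaging of replicates. The logarithm is base 2, and genotypes were kept only with ≥10 input reads and ≥1 read per output in Illumina sequencing. The sequenced libraries came from one triplicate in vitro selection round, including frozen incubation at −7 °C, of PCR-built, transcribed mutant libraries of each subunit of a heterodimeric triplet polymerase ribozyme.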
GGAUCUUCUCGAUCUAACAAAAAAGACAAAUCUGCCACAAAGCUUGACAGCAUCUUCGGAUGCAGAGGCGGCAGCCUUAGGUGGCUCGAUAGCGCUAACGUUCUCAACUAUGACACGCAAAACACGUGCUCCGUUGAAUGGAGUUUAUCAUG: the “polymerase ribozyme fitness (log ratio)” value is not above -4.2.

On to GGAUCUUCUCGAUCUAACAAAAAAGACAAAUCUGCCACAAAGCUUGACAGCAUCUUCUGAUGCAGAGGCGGCAGCCUUCGGUGGCGCGAUAGAGCCAAAGUUCUCAACUAUGACAAGCAAAACGCGUGCUCCGUUGAAUGGAGUUUAUCAUG, for which the “polymerase ribozyme fitness (log ratio)” value is not above -4.2.

Consider GGAUCUUCUCGAUCUAACAAAAAAGACAAAUCUGCCACAAAGCUUGACAGCAUCUUCGGAUGCAGAGGCGGCAGCCUUCGGUGGCGCGAUAGCGCCAACGUUCUUAACUAUGACACGUAAAACGCGUGCUCCGUUGAAUGGAUUUUAUCAUG, for which the “polymerase ribozyme fitness (log ratio)” value was not above -4.2.

GGAUCUUCUCGAUCUAACAAAAAAGACAAAUCUGCCACAAAGCUUGACACCAUCUUCAGAAGCAGAGCCGGCAGCCUUCGGUGGCGCGAUAGCGCCAACGUUCUCAACUAUGACACGCAAAACGCGUGCUCCGUUGAAUGGAGUUUAUCAUG: the “polymerase ribozyme fitness (log ratio)” value was not above -4.2.

As to GGAUCUUCUCGAUCUAACAAAAAAGACAAAUCUGCCACAAAGCUUGACAGCAUCUUCGGAUGCAGAGGCGGCAGCCUUCGGUGGAGCGAUAGCGCCAACGUUCUCAACUAUGACACGAAAAACGCGUGCUCCGUUGAAUGGAGUUUAUCAUG, the “polymerase ribozyme fitness (log ratio)” value is -1.39.

With GGAUCUUCUCGAUCUAACAAAAAAGACAAAUCUGCCACAAAGCUUGACAGCAUCUUCGCAUGCAGAGGCGGCAGCCUUCGGUGGCGCGAUAUCGCCAAGGUUCUCUACUAUGACACGCAAAACGCGUGCUCCGUUGAAUGGAGUUUAUCAUG, the “polymerase ribozyme fitness (log ratio)” value was not above -4.2.

For GGAUCUUCUCGAUCUAACAAAAAAGACAAAUCUGCCACAAAGCUUGACAGCAUCUUCGGAUGCAGAGGCGGCAGCCUUCGGUGGAGCGAUAGCGCCAACGUUCUCAACUAUGACACGCAAAACGCGUGCUCCGUUGAAUGCAGUUUAUCAUG, the “polymerase ribozyme fitness (log ratio)” value was not above -4.2.

On to GGAUCUUCUCGAUCUAACAAAAAAGACAAAUCUGCCACAAAGCUUGACAGCAUCUUCGGAUGCAGAGGCGGCAGCCUUCGGUGGCGCGAUAGCGCCAAUGUUCUGAACUAUGACACGCAAAACGCGUGCUCCGUUGAAUGGAGUUUAUCAUG, for which the “polymerase ribozyme fitness (log ratio)” value is not above -4.2.

As to GGAUCUUCUCGAUCUAACAAAAAAGACAAAUCUGCCACAAAGCUUGACACCAUCUUCGGAUGCAGAGGCGGCAGCCUUCGGUGGCUCAAAAGCGCCAACGUUCUCAACUAUGACACGCAAAACGCGUGCUCCGUUUAAUGGAGUUUAUCAUG, the “polymerase ribozyme fitness (log ratio)” value was not above -4.2.

GGAUCUUCUCGAUCUAACAAAAAAGACAAAUCUGCCACAAAGCUUGACAGCAUCUUCGGAUGCAGAGGCGGCAGCCUUCGGUGGCGCGAUAGCGCGAACGUUGUGGACUAUGACACGCAAAACGCGUGCUCCGUUGAAUGGAGUUUAUCAUG: the “polymerase ribozyme fitness (log ratio)” value is -3.96.

For the variant GGAUCUUCUCGAUCUAACAAAAAAGACAAAUCUGCCACAAAGCUUGACAGCAUCUUCGGAUGCAGAGGCGGCAGCCUUCGGUGGCGCGAUAGCGCCAACGUUGUCAACUAUGACACGCAAAACGCGUGCUCCUUUGAAUGGAGUUUAUCAUG, the “polymerase ribozyme fitness (log ratio)” value is not above -4.2.

GGAUCUUCUCGAUCUAACAAAAAAGACAAAUCUGCCACAAAGCUUGACAGCAUCUUCGGAUGCAGAGGCGGCAGCCUUCGGUGGCGGGAUAGCGCCAACGUUCUCAACUAUGACACGCAAAACGCGUGCUCCGUUGAAUGGAGUUUAUCAUG: the “polymerase ribozyme fitness (log ratio)” value was not above -4.2.

Turning to GGAUCUUCUCGAUCUAACAAAAAAGACAAAUCUGCCACAAAGCUUGACAGCAUCUUCCGAUGCAGAGGCGGCAGCCUUCGGCGGCGCGAUAGCGGCAACCUUCUCAACUAUGACACGCAAAACGCGUGCUCCGUUGAAUGGAGUUUAUCAUG, the “polymerase ribozyme fitness (log ratio)” value is not above -4.2.

Regarding GGAUCUUCUCGAUCUAACAAAAAAGACAAAUCUGCCACAAAGCUUGACAGCAUCUUCGGAUGCAGAGGCGUCAGCCUUCGGUGGCACGAUAGCGCAAACGUUCUCAAUUAUGACACGCAAAACGCGUGCUCCGUUGAAUGGAGUUUAUCAUG, the “polymerase ribozyme fitness (log ratio)” value is not above -4.2.

GGAUCUUCUCGAUCUAACAAAAAAGACAAAUCUGCCACAAAGCUUGACAGCAUCUUCGGAUGCAGAGGCGGCAGCCUUCGGUGGCGUGAUAGCGCCAGCGUUAUCAACUACGACACGCAAAACACGUGCUCCGUUGAAUGGAGUUUAUCAUG: the “polymerase ribozyme fitness (log ratio)” value was not above -4.2.

GGAUCUUCUCGAUCUAACAAAAAAGACAAAUCUGCCACAAAGCUUGACAGCAUCUUCGGAUGCAGAGGCGGCAGCCUUCGGUUGCGCGAUAGCGCCAACGUUCUCAACUAUGACACGCAAAACGCGUGCUCCGUUGAAUGGAGUUUAUCAUG: the “polymerase ribozyme fitness (log ratio)” value is -1.41.

For GGAUCUUCUCGAUCUAACAAAAAAGACAAAUCUGCCACAAAGCUUGACAGCAUCUUCGGAUCCAGAGGCGGCAGCCUUCGGUGGCGCGAUAGCGCCAACGUUCUCAAGUAUGACACGCAAAACGCGUGCUCCGUUGUAUGGAGUUAAUCAUG, the “polymerase ribozyme fitness (log ratio)” value was not above -4.2.

In the case of GGAUCUUCUCGAUCUAACAAAAAAGACAAAUCUGCCACAAAGCUUGACAGCAUCUUCGGAUGCAGAGACGGCAGCCUUCGGUGGCGCGAUAGCGCCAACGUUCUCAACUAUGUCACGCAAAACGCGUGCUCCGUUGAAUGGAGUUUACCAUG, the “polymerase ribozyme fitness (log ratio)” value was not above -4.2.

GGAUCUUCUCGAUCUAACAAAAAAGACAAAUCUGCCACAAAGCUUGACAGCAUCUUCGGAUGCAGAGGCGGCAGCCUUCGGUGGGGCGAUAGCGCCAACGUUCUCACCUAAGACACGCAAAACGCGUGCUCCGUGGAAUGGAGUUUAUCAUG: the “polymerase ribozyme fitness (log ratio)” value was not above -4.2.
